B1: CPEB3 Ribozyme (parent)
chain: UAACAGGGGGCCACAGCAGAAGCGUUCACGUCGCAGCCCCUGUCAGAUUCUGGUGAAUCUGCGAAUUCUGCUGUAUAUCUC

Read counts are not given, so values of variants with three or more changes are uncertain.

Variants of B1 are the subject of the series. Put plainly: self-cleavage, relative activity (ratio to wild type); higher = more cleavage; in vitro, sequencing. A digest of the protocol: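 CPEB3 self-cleaving ribozyme mutant libraries were made by rounds of error-prone PCR, barcoded, and transcribed in vitro with T7 RNA polymerase for 5 hours at 37°C. Cleavage occurred during transcription and a 15 min DNase I step before EDTA stop. RNAs were reverse transcribed with template switching and Illumina-sequenced, with DNA sequencing mapping barcodes to variants. Relative activity is the variant's cleaved/total read fraction divided by wild type's (minimum 5 reads), averaged across three batches.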
U1C A15U U25C A28U U69A: the self-cleavage amounted to 0.2. As to U1C A28U A47G U49C U51A A64G, the self-cleavage is 0.25.

Turning to U1C C17G A18G U51A U66C U69A U78A, the self-cleavage is 0.04. To U1C A13U A20G U60G U80C belongs 0.14; to A2G A15G A18U C62U U72A, 0; to U1C A13U U54G, 0.64. Consider U1C A20G U49A, for which the self-cleavage came to 0.29.

U1C C44U U66A: the self-cleavage came to 0.06. In the case of U1C C4U A64G it was 1.04; in that of A2G A13G U25C A56G A77G, 0.55; in that of U1C A20G U41G A56G A57G, 0.2. Regarding U1C G8U U60A, the self-cleavage turned out to be 0.27. To U1C A15G A35G U67C U72C belongs 0.27; to U1C A64U U74A, 0.39. For the variant U1C U26C U54C, the self-cleavage worked out at 0.43.

With U1C C11U A28C U41G U43C U76C A77G, the self-cleavage worked out at 0.2. Consider A2G A5U C27G A64G, for which the self-cleavage is 0.06.

In the case of U1C C11G A15U U41A A65G U69G, the self-cleavage was found to be 0.04. In the case of U1C A18G U80C it was 0.9; in that of U1C G46U A64G U74C, 0.4. Regarding U1C A15G A21G U48C A65U, the self-cleavage turned out to be 0.06.

U1G A45G A56U: the self-cleavage was 0.21. As for U1C A35G U69C, the self-cleavage stood at 1.11. With A2G A5G A15U U58C U66C, the self-cleavage stood at 0.08. For the variant U1C A18U C39U U41A U69C, the self-cleavage came out at 0.12. Take U1G G7A C23U U49C C50U U54A: the self-cleavage turned out to be 0.05. On to U1C U25C U51C, for which the self-cleavage turned out to be 0.14.

With A2G A5C A20G U54A, the self-cleavage was found to be 0.49. In the case of U1C A28C A45G A56G U58C C62U U78C, the self-cleavage worked out at 0.17. With A2G A18G C37A, the self-cleavage was 0.27.

Take U1C A35G A45G U67A: the self-cleavage stood at 0.23.

For U1C G24A U31C U51A G61C U78A, the self-cleavage came out at 0.05. To U1C U26C U54C A57G U67C U78C U80C belongs 0.09; to U1C A35G U51C U58C G63U, 1.03. U1C G9U A20G G33A A45G U54A: the self-cleavage was 0.09. Take U1C U31C U49C U58C U78C: the self-cleavage was 0. In the case of U1C C11G A56U G63A U80C, the self-cleavage came to 0.09.

Take A2G A5G U41A A45U A65C G73C: the self-cleavage was determined as 0.1. Regarding A2G A5G A64G U80A, the self-cleavage stood at 0.61.

Regarding U1C G33C U43C A56G, the self-cleavage is 0.47. As to U1C A15U A18U A28G A57U U67C, the self-cleavage was 0.12. For U1C G16A A57G U69C G73U, the self-cleavage was found to be 0.16. In the case of U1C A20G G24U A56G it was 0.27.

On to U1C C23A C29U U67A U69A U72C, for which the self-cleavage was 0.04.

A2G A18U U72A: the self-cleavage is 0.23. As for A2G A5U U60C A75U C81A, the self-cleavage was determined as 0.53.

For U1G A3U U41C A45G U60G U67C, the self-cleavage was found to be 0.09. In the case of U1C C4U A20U A21U A56G U69A, the self-cleavage is 0.15. In the case of U1G G9U A45U G70A it was 0.19. Turning to U1C A20G U48C U49C, the self-cleavage is 0.35. In the case of U1C G7U A28G U60C it was 0.05; in that of U1C A18G C50G U51C G52U U60C, 0.32; in that of A2G A20U A45C A75G U76A, 0.11. As to A2G A15G A28C G46A U48C U69G, the self-cleavage was 0.08. Consider U1C A20U A45C U51C A75U, for which the self-cleavage amounted to 0.05.

Turning to A2G A5G G6A A15G, the self-cleavage was 0.11.

Regarding U1C C29U U48C U66C, the self-cleavage was 0.11.

For U1C A13U A20G U25C C68A, the self-cleavage stood at 0.05.

With A2G A15U U43C U54A A65G U66C U67C, the self-cleavage came out at 0.08.

As for U1C A20G U41G, the self-cleavage stood at 0.07. On to U1C C29U G33U U43C, for which the self-cleavage was 0.13. For the variant U1C U25C U54G U74C, the self-cleavage worked out at 0.51. A2G A13G U26C: the self-cleavage was 0.5. Turning to A2C A18G C34G U41C A47U, the self-cleavage turned out to be 0.06. As for A2G A18U A28U U41A, the self-cleavage is 0.53. For A2C A28G U51C U58C, the self-cleavage stood at 0.18.

Turning to U1C A15G A64G G73A, the self-cleavage was 1.22.

As to A2G A5G G8C A18G U31A U80A, the self-cleavage is 0.07. In the case of U1C G8U U41A U51A U54A U76C, the self-cleavage worked out at 0.06. For the variant U1C A18G U60A, the self-cleavage was 0.23. Take U1C A13C U72C G73A: the self-cleavage was determined as 0.88.

Regarding U1C U31C A77G, the self-cleavage turned out to be 0.66. In the case of U1C C11G G53A U54C U67A it was 0.07; in that of U1C C34G U49C, 0.06; in that of U1C C17U A20G C34U U72C, 0.04. To U1C C12U A15U A35G C37U U51C U69C belongs 0.1; to U1C A5U G9U A15U G16C U49C, 0.06; to A2G A21G U41A U48C, 0.27. In the case of U1C U49C U69A, the self-cleavage came out at 0.1. As for A2C G9A A28G A45U A47G A57G U72C, the self-cleavage was 0.05.

A2G A20G A28U U41C A47U U54C: the self-cleavage was 0.12. In the case of U1C A18G A45G A77C, the self-cleavage was found to be 0.21. Take U1C C11G U25C G30C U41C A57G A64G: the self-cleavage is 0.04.
